The source of these data is the supplement of paper PMC11876631.

The chains are these.
B1: folE L107W (protein)
chain: MPSLSKEAALVHEALVARGLETPLRPPVHEMDNETRKSLIAGHMTEIMQLLNLDLADDSLMETPHRIAKMYVDEIFSGLDYANFPKITLIENKMKVDEMVTVRDITWTSTCEHHFVTIDGKATVAYIPKDSVIGLSKINRIVQFFAQRPQVQERLTQQILIALQTLLGTNNVAVSIDAVHYCVKARGIRDATSATTTTSLGGLFKSSQNTRHEFLRAVRHHN
B2: folE V172A (protein)
chain: MPSLSKEAALVHEALVARGLETPLRPPVHEMDNETRKSLIAGHMTEIMQLLNLDLADDSLMETPHRIAKMYVDEIFSGLDYANFPKITLIENKMKVDEMVTVRDITLTSTCEHHFVTIDGKATVAYIPKDSVIGLSKINRIVQFFAQRPQVQERLTQQILIALQTLLGTNNAAVSIDAVHYCVKARGIRDATSATTTTSLGGLFKSSQNTRHEFLRAVRHHN
B3: folE L107Q (protein)
chain: MPSLSKEAALVHEALVARGLETPLRPPVHEMDNETRKSLIAGHMTEIMQLLNLDLADDSLMETPHRIAKMYVDEIFSGLDYANFPKITLIENKMKVDEMVTVRDITQTSTCEHHFVTIDGKATVAYIPKDSVIGLSKINRIVQFFAQRPQVQERLTQQILIALQTLLGTNNVAVSIDAVHYCVKARGIRDATSATTTTSLGGLFKSSQNTRHEFLRAVRHHN
B4: ftsA V24A (protein)
chain: MIKATDRKLVVGLEIGTAKVAALAGEVLPDGMVNIIGVGSCPSRGMDKGGVNDLESVVKCVQRAIDQAELMADCQISSVYLALSGKHISCQNEIGMVPISEEEVTQEDVENVVHTAKSVRVRDEHRVLHVIPQEYAIDYQEGIKNPVGLSGVRMQAKVHLITCHNDMAKNIVKAVERCGLKVDQLIFAGLASSYSVLTEDERELGVCVVDIGGGTMDIAVYTGGALRHTKVIPYAGNVVTSDIAYAFGTPPSDAEAIKVRHGCALGSIVGKDESVEVPSVGGRPPRSLQRQTLAEVIEPRYTELLNLVNEEILQLQEKLRQQGVKHHLAAGIVLTGGAAQIEGLAACAQRVFHTQVRIGAPLNITGLTDYAQEPYYSTAVGLLHYGKESHLNGEAEVEKRVTASVGSWIKRLNSWLRKEF
B5: frr L65A (protein)
chain: MISDIRKDAEVRMDKCVEAFKTQISKIRTGRASPSLLDGIVVEYYGTPTPLRQLASVTVEDSRTAKINVFDRSMSPAVEKAIMASDLGLNPNSAGSDIRVPLPPLTEERRKDLTKIVRGEAEQARVAVRNVRRDANDKVKALLKDKEISEDDDRRSQDDVQKLTDAAIKKIEAALADKEAELMQF
B6: frr F20W (protein)
chain: MISDIRKDAEVRMDKCVEAWKTQISKIRTGRASPSLLDGIVVEYYGTPTPLRQLASVTVEDSRTLKINVFDRSMSPAVEKAIMASDLGLNPNSAGSDIRVPLPPLTEERRKDLTKIVRGEAEQARVAVRNVRRDANDKVKALLKDKEISEDDDRRSQDDVQKLTDAAIKKIEAALADKEAELMQF
B7: frr V117Q (protein)
chain: MISDIRKDAEVRMDKCVEAFKTQISKIRTGRASPSLLDGIVVEYYGTPTPLRQLASVTVEDSRTLKINVFDRSMSPAVEKAIMASDLGLNPNSAGSDIRVPLPPLTEERRKDLTKIQRGEAEQARVAVRNVRRDANDKVKALLKDKEISEDDDRRSQDDVQKLTDAAIKKIEAALADKEAELMQF
B8: frr V117A (protein)
chain: MISDIRKDAEVRMDKCVEAFKTQISKIRTGRASPSLLDGIVVEYYGTPTPLRQLASVTVEDSRTLKINVFDRSMSPAVEKAIMASDLGLNPNSAGSDIRVPLPPLTEERRKDLTKIARGEAEQARVAVRNVRRDANDKVKALLKDKEISEDDDRRSQDDVQKLTDAAIKKIEAALADKEAELMQF
B9: frr F20A (protein)
chain: MISDIRKDAEVRMDKCVEAAKTQISKIRTGRASPSLLDGIVVEYYGTPTPLRQLASVTVEDSRTLKINVFDRSMSPAVEKAIMASDLGLNPNSAGSDIRVPLPPLTEERRKDLTKIVRGEAEQARVAVRNVRRDANDKVKALLKDKEISEDDDRRSQDDVQKLTDAAIKKIEAALADKEAELMQF
B10: frr L65W (protein)
chain: MISDIRKDAEVRMDKCVEAFKTQISKIRTGRASPSLLDGIVVEYYGTPTPLRQLASVTVEDSRTWKINVFDRSMSPAVEKAIMASDLGLNPNSAGSDIRVPLPPLTEERRKDLTKIVRGEAEQARVAVRNVRRDANDKVKALLKDKEISEDDDRRSQDDVQKLTDAAIKKIEAALADKEAELMQF
B11: frr I24Q (protein)
chain: MISDIRKDAEVRMDKCVEAFKTQQSKIRTGRASPSLLDGIVVEYYGTPTPLRQLASVTVEDSRTLKINVFDRSMSPAVEKAIMASDLGLNPNSAGSDIRVPLPPLTEERRKDLTKIVRGEAEQARVAVRNVRRDANDKVKALLKDKEISEDDDRRSQDDVQKLTDAAIKKIEAALADKEAELMQF
B12: frr I24P (protein)
chain: MISDIRKDAEVRMDKCVEAFKTQPSKIRTGRASPSLLDGIVVEYYGTPTPLRQLASVTVEDSRTLKINVFDRSMSPAVEKAIMASDLGLNPNSAGSDIRVPLPPLTEERRKDLTKIVRGEAEQARVAVRNVRRDANDKVKALLKDKEISEDDDRRSQDDVQKLTDAAIKKIEAALADKEAELMQF
B13: frr V117W (protein)
chain: MISDIRKDAEVRMDKCVEAFKTQISKIRTGRASPSLLDGIVVEYYGTPTPLRQLASVTVEDSRTLKINVFDRSMSPAVEKAIMASDLGLNPNSAGSDIRVPLPPLTEERRKDLTKIWRGEAEQARVAVRNVRRDANDKVKALLKDKEISEDDDRRSQDDVQKLTDAAIKKIEAALADKEAELMQF
B14: frr V69P (protein)
chain: MISDIRKDAEVRMDKCVEAFKTQISKIRTGRASPSLLDGIVVEYYGTPTPLRQLASVTVEDSRTLKINPFDRSMSPAVEKAIMASDLGLNPNSAGSDIRVPLPPLTEERRKDLTKIVRGEAEQARVAVRNVRRDANDKVKALLKDKEISEDDDRRSQDDVQKLTDAAIKKIEAALADKEAELMQF
B15: frr I24A (protein)
chain: MISDIRKDAEVRMDKCVEAFKTQASKIRTGRASPSLLDGIVVEYYGTPTPLRQLASVTVEDSRTLKINVFDRSMSPAVEKAIMASDLGLNPNSAGSDIRVPLPPLTEERRKDLTKIVRGEAEQARVAVRNVRRDANDKVKALLKDKEISEDDDRRSQDDVQKLTDAAIKKIEAALADKEAELMQF
B16: frr V78A (protein)
chain: MISDIRKDAEVRMDKCVEAFKTQISKIRTGRASPSLLDGIVVEYYGTPTPLRQLASVTVEDSRTLKINVFDRSMSPAAEKAIMASDLGLNPNSAGSDIRVPLPPLTEERRKDLTKIVRGEAEQARVAVRNVRRDANDKVKALLKDKEISEDDDRRSQDDVQKLTDAAIKKIEAALADKEAELMQF
B17: frr I24W (protein)
chain: MISDIRKDAEVRMDKCVEAFKTQWSKIRTGRASPSLLDGIVVEYYGTPTPLRQLASVTVEDSRTLKINVFDRSMSPAVEKAIMASDLGLNPNSAGSDIRVPLPPLTEERRKDLTKIVRGEAEQARVAVRNVRRDANDKVKALLKDKEISEDDDRRSQDDVQKLTDAAIKKIEAALADKEAELMQF
B18: frr I67A (protein)
chain: MISDIRKDAEVRMDKCVEAFKTQISKIRTGRASPSLLDGIVVEYYGTPTPLRQLASVTVEDSRTLKANVFDRSMSPAVEKAIMASDLGLNPNSAGSDIRVPLPPLTEERRKDLTKIVRGEAEQARVAVRNVRRDANDKVKALLKDKEISEDDDRRSQDDVQKLTDAAIKKIEAALADKEAELMQF
B19: frr I24D (protein)
chain: MISDIRKDAEVRMDKCVEAFKTQDSKIRTGRASPSLLDGIVVEYYGTPTPLRQLASVTVEDSRTLKINVFDRSMSPAVEKAIMASDLGLNPNSAGSDIRVPLPPLTEERRKDLTKIVRGEAEQARVAVRNVRRDANDKVKALLKDKEISEDDDRRSQDDVQKLTDAAIKKIEAALADKEAELMQF

± gives the standard deviation of the averaged measurements. Laboratory Escherichia coli strains with one amino-acid change in an essential protein, pooled on minimal glucose agar with carbenicillin or gentamicin at twice the control MIC (plus kanamycin and chloramphenicol for the plasmids), 48 h. Fold change of barcode share against drug-free plates; higher = less susceptible. Active = above 20 in both replicates (the paper's putatively resistant). '<' = one read or none on drug, '>' = one read or none on a drug-free plate. Shares are relative, so most strains fall below 1 when a few take over. Listed are strains with at least 15 reads on both drug-free plates, and hits; most hits rest on fewer reference reads. Replicate rank correlation about 0.5. Edits are read from barcodes.

In one data set the target is Escherichia coli (laboratory strain). The experiment in a line: barcode share on antibiotic plates over drug-free plates; higher = less susceptible. To be noted: antibiotic: carbenicillin; 2× MIC (3.1 µg/mL). As for the experimental part: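 A pool of E. coli strains, each edited to carry one amino-acid change in an essential protein, was grown for 48 h on minimal glucose agar with or without antibiotic; strain barcodes were sequenced; mean of two replicates.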
For the protein B1, the “fold change of barcode share” value is 0.224 ± 0.03.

With B2, the “fold change of barcode share” value turned out to be 0.3717 ± 0.0025.

Take B3: the “fold change of barcode share” value came to 0.476 ± 0.1.

In the case of B4, the “fold change of barcode share” value is 0.698 ± 0.65.

Consider B5, for which the “fold change of barcode share” value amounted to 0.432 ± 0.062.

Turning to B6, the “fold change of barcode share” value was 0.286 ± 0.048.

B7: the “fold change of barcode share” value stood at 0.584 ± 0.043.

On to B8, for which the “fold change of barcode share” value came to 0.376 ± 0.026.

Regarding B9, the “fold change of barcode share” value was 0.334 ± 0.14.

For the protein B10, the “fold change of barcode share” value is 0.412 ± 0.04.

With B11, the “fold change of barcode share” value worked out at 0.294 ± 0.065.

As to B12, the “fold change of barcode share” value was 0.745 ± 0.23.

With B13, the “fold change of barcode share” value was determined as 0.281 ± 0.0052.

For B14, the “fold change of barcode share” value worked out at 0.25 ± 0.013.

Turning to B15, the “fold change of barcode share” value worked out at 0.371 ± 0.15.

With B16, the “fold change of barcode share” value was determined as 0.692 ± 0.38.

As to B17, the “fold change of barcode share” value amounted to 1.24 ± 0.24.

For the protein B18, the “fold change of barcode share” value is 0.212 ± 0.09.

Take B19: the “fold change of barcode share” value worked out at 1.43 ± 1.2.

Still in this data set, the particulars now being: antibiotic: gentamicin; 2× MIC (MIC 0.45 µg/mL).
In the case of B1, the “fold change of barcode share” value turned out to be 0.00839 ± 0.0051.

With B2, the “fold change of barcode share” value was found to be 0.00963 ± 0.0059.

In the case of B3, the “fold change of barcode share” value is less than 0.0145.

Turning to B4, the “fold change of barcode share” value is less than 0.00648.

For B5, the “fold change of barcode share” value was found to be 0.0204 ± 0.012.

Take B6: the “fold change of barcode share” value was less than 0.00969.

On to B8, for which the “fold change of barcode share” value is 0.00984 ± 0.0032.

With B9, the “fold change of barcode share” value was less than 0.00633.

As to B10, the “fold change of barcode share” value is less than 0.0129.

Turning to B11, the “fold change of barcode share” value was found to be 0.00476 ± 0.0026.

Regarding B13, the “fold change of barcode share” value was determined as 0.00341 ± 0.0012.

Take B14: the “fold change of barcode share” value came to 0.014 ± 0.0065.

In the case of B15, the “fold change of barcode share” value amounted to 0.00245 ± 0.00058.

As to B16, the “fold change of barcode share” value is less than 0.0143.

Take B17: the “fold change of barcode share” value amounted to 0.0687 ± 0.089.

On to B18, for which the “fold change of barcode share” value is less than 0.0103.
